# From publication doi:10.1101/2020.10.13.334797 (bioRxiv, 2020)
# Target: the molecule itself
# Experiment: cryo-EM structure
protein,measurement,value
"human transient receptor potential vanilloid 4 (hTRPV4), truncated construct, […] N651D (domain or fragment) not shown",stoichiometry N,4
